Data reported in PubChem BioAssay AID504832 (National Center for Advancing Translational Sciences (NCATS), 2011).
Screen size: about 310,000 compounds; about 18,000 (5.8%) were called active. The shares of active, inactive and inconclusive entries below differ from those in the screen. Calls follow the shape of the dose curve; as a rule, active = well fitted inhibition curve with a large enough effect; inconclusive = small, poorly fitted or top-dose-only effect, or another doubt; inactive = no such curve, though single readings can be large or run the other way. No potency is given beside an inconclusive call; the fits are too rough.
Potency is read from the fitted curve at half-maximal effect; tags tell the direction and shape of the fitted curve.

Assay: Primary qHTS for delayed death inhibitors of the malarial parasite plastid, 48 hour incubation
Conditions: P. falciparum luciferase growth in erythrocytes; series mostly up to 28.7 µM
Method in brief: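 Luciferase-expressing P. falciparum in infected erythrocytes (2% hematocrit, 0.1% parasitemia final) in RPMI 1640/0.5% Albumax were exposed to compound for 48 hours at 37 C, 5% CO2; growth read as luminescence.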
For Cc1ccc(Cl)c2sc(N3CCN(C(=O)c4ccco4)CC3)nc12, the Potency was inconclusive [inhibitor, partial curve]. With Cc1ccccc1Nc1nc(Nc2ccccc2C)nc(SC2=NCCS2)n1 the Potency was active: 10.4 µM. In the case of O/N=C(\c1ccccc1)c1nccc2ccccc12, the Potency is reported as “inactive”. For COc1ccc(NC(=O)COc2ccccc2)cc1NC(=O)c1ccco1, the Potency was “inactive”. In the case of COC(=O)c1cccc(NC(=O)CCc2ccccc2)c1, the Potency is reported as “inactive”. For O=C(NCc1nnc(SCc2ccc(C(F)(F)F)cc2)n1-c1ccccc1)C12CC3CC(CC(C3)C1)C2, the Potency was inconclusive [inhibitor, partial curve]. With CC(NC(=O)COC(=O)/C=C/c1ccco1)c1ccccc1 (stereo not drawn) the Potency was “inactive”. For COc1ccccc1Sc1nc(-c2ccccn2)ncc1OC, the Potency was inconclusive [inhibitor, full curve]. For Cc1csc(N2CCc3ccccc32)n1, the Potency was “inactive”. With CCc1ccc2[nH]c(=O)c(CN(CCN(CC)CC)C(=O)NC3CCCCC3)cc2c1 the Potency was inconclusive [inhibitor, single point]. With COc1ccc(CCNc2ccc(C(CC(N)=O)NC(=O)c3ccc(Br)cc3)cc2[N+](=O)[O-])cc1 (stereo not drawn) the Potency was inconclusive [inhibitor, partial curve, poor fit]. In the case of COc1ccc(CN(C)C(=O)c2ccc(COc3ccccc3)cc2)c(OC)c1, the Potency is reported as inconclusive [inhibitor, partial curve, poor fit]. For CCC(Sc1nc2n[nH]c(C)c2c(=N)n1-c1ccc(C)c(Cl)c1)C(=O)N1CCOCC1 (stereo not drawn), the Potency was active: 13.1 µM. In the case of CC12c3ccccc3C(c3ccccc31)C1C(=O)N(Cc3cccnc3)C(=O)C12 (stereo not drawn), the Potency is reported as inconclusive [inhibitor, partial curve, poor fit]. With CCCc1cc(=O)[nH]c(SCC(=O)N(C)C2CCCCC2)n1 the Potency was inconclusive [inhibitor, single point]. For Cc1c(-c2nn(C)c(=O)c3ccccc23)oc2ccc(F)cc2c1=O, the Potency was active: 2.62 µM. For Cc1c(CCC(=O)N2CCC[C@H]2C(=O)O)c(=O)oc2cc3oc4c(c3cc12)CCCC4, the Potency was inconclusive [inhibitor, full curve, poor fit]. With CN1CCc2c(sc(NC(=O)c3ccc(S(=O)(=O)N4CCOCC4)cc3)c2C(N)=O)C1 the Potency was inconclusive [inhibitor, single point]. With COc1ccc(NC(=O)CN2C(=O)NC3(CC(C)CC(C)(C)C3)C2=O)cc1S(=O)(=O)N1CCCCC1 (stereo not drawn) the Potency was active: 13.1 µM. With O=C(c1cc(-c2ccc(Br)cc2)nc2ccccc12)N1CCC1 the Potency was active: 3.29 µM. For Cc1sc2nc(C3CC3)nc(N3CCN(C(=O)c4ccccc4F)CC3)c2c1C, the Potency was inconclusive [inhibitor, single point]. With COc1ccc2nc(Cl)c(C3CC(c4ccco4)=NN3C(=O)CCCC(=O)O)cc2c1 (stereo not drawn) the Potency was inconclusive [inhibitor, full curve, poor fit]. In the case of O=C(Nc1ccccc1)c1sc2cc(C(F)(F)F)cnc2c1-c1cccs1, the Potency is reported as inconclusive [inhibitor, single point]. For CCCCN(C(=O)c1ccc(COc2ccccc2)o1)c1c(N)n(CC(C)C)c(=O)[nH]c1=O, the Potency was inconclusive [inhibitor, single point]. For COc1cc(CN(C)c2ccc(S(=O)(=O)N3CCCC3)cn2)ccc1OC(F)F, the Potency was active: 14.7 µM. For O/N=C/c1ccccc1OCc1ccccc1F, the Potency was “inactive”. For C(C#CCCCCCCCCC[n+]1ccccc1)#CCCCCCCCCC[n+]1ccccc1, the Potency was active: 0.294 µM. With CC(=O)c1ccc(N2CCC(c3cc(-c4ccc(Cl)cc4)n[nH]3)CC2)c([N+](=O)[O-])c1 the Potency was inconclusive [inhibitor, partial curve, poor fit]. With CC(NC(=O)c1cnccn1)c1ccc(S(N)(=O)=O)cc1 (stereo not drawn) the Potency was “inactive”. In the case of Oc1ccc(-c2nnc(-c3ccc(O)cc3)nn2)cc1, the Potency is reported as inconclusive [inhibitor, single point]. With CCCC1CCC(=NNS(=O)(=O)c2ccc(C)c([N+](=O)[O-])c2)CC1 (stereo not drawn) the Potency was inconclusive [inhibitor, single point]. With O=C(CSc1ccc(Cl)cc1)Nc1ccccc1N1CCN(C(=O)c2ccc(Cl)cc2)CC1 the Potency was active: 4.15 µM. For CN(C)c1ccc(C(O)P(=O)(OC2CCCCC2)OC2CCCCC2)cc1 (stereo not drawn), the Potency was inconclusive [inhibitor, single point]. In the case of COc1ccc(NC(=O)N2CCN(c3nc4ccccc4n3C(C)C)CC2)cc1, the Potency is reported as inconclusive [inhibitor, partial curve]. In the case of CCOc1cc(CNC(C)C(O)c2ccccc2)cc(Cl)c1OCC (stereo not drawn), the Potency is reported as active: 1.47 µM. With Cn1c(CC(=O)NNC(=O)c2ccc(F)cc2F)nc2ccccc21 the Potency was inconclusive [inhibitor, single point]. For Cn1c(/C=C/c2ccc(Cl)cc2)c([N+](=O)[O-])c(=O)n(C)c1=O, the Potency was inconclusive [inhibitor, single point]. For CCc1ccc(-c2nn(-c3cc(Cl)ccc3[N+](=O)[O-])c(=O)c3ccccc23)cc1, the Potency was inconclusive [inhibitor, single point]. In the case of Cc1ccc(OCCn2cc(/C=C(\C#N)C(=O)NCC3CCCO3)c3ccccc32)cc1C (stereo not drawn), the Potency is reported as inconclusive [inhibitor, single point]. In the case of COc1cc(CNc2ncc(-c3ccc(Br)cc3)n2C)cc(OC)c1OC, the Potency is reported as inconclusive [inhibitor, full curve]. With FC(F)(F)c1cccc(Cc2noc(CN(Cc3ccccn3)CC3CCCO3)n2)c1 (stereo not drawn) the Potency was inconclusive [inhibitor, partial curve, poor fit]. For O=C(N/N=C(\Cc1ncc[nH]1)c1ccccc1)c1ccncc1, the Potency was inconclusive [inhibitor, partial curve, poor fit]. For CCCCN(CC)CCCNC(=O)c1ccc(CSc2nc3ccncc3[nH]2)cc1, the Potency was inconclusive [inhibitor, single point]. With CCCCn1c(N)c(N(CC(C)C)C(=O)CC2CCCCC2)c(=O)[nH]c1=O the Potency was inconclusive [inhibitor, partial curve, poor fit]. In the case of O=C(Cc1ccccc1)Nc1ccc(N2CCOCC2)cc1N1CCOCC1, the Potency is reported as “inactive”. In the case of CC(C)(C)NC(=O)Cn1nnc(-c2cccs2)n1, the Potency is reported as “inactive”. For CCC1CCCCN1CCCNC(=O)CSc1nc2nc(C)c(Cc3ccccc3Cl)c(C)n2n1 (stereo not drawn), the Potency was inconclusive [inhibitor, single point]. For COc1cc(OC)c(OC)cc1NC(=O)CC1COc2ccccc2O1 (stereo not drawn), the Potency was “inactive”. With O=C(c1ccccc1N1CCOCC1)N1CCCC(Nc2ccc(F)cc2)C1 (stereo not drawn) the Potency was “inactive”. With O=C(c1ccc(Br)cc1)c1cc([N+](=O)[O-])ccc1N1CCCCC1 the Potency was inconclusive [inhibitor, partial curve, poor fit]. For CCOC(=O)Cc1cc(=O)n2[nH]c(C)c(-c3ccc(OC)cc3)c2n1, the Potency was inconclusive [inhibitor, single point]. In the case of C1COC(NC(C2CC2)C2CC2)=N1, the Potency is reported as inconclusive [inhibitor, single point]. With Cn1nnnc1Sc1ncnc2scc(-c3ccc[nH]3)c12 the Potency was active: 10.4 µM. In the case of Nc1nonc1-c1nc2ccccc2n1Cc1ccc(F)cc1, the Potency is reported as inconclusive [inhibitor, full curve]. For Cc1cc(Cl)ccc1OCCCC(=O)NC1CCN(C)CC1, the Potency was inconclusive [inhibitor, single point]. For CCCC(=O)Nc1nn(C)c2nc3cc(C)ccc3cc12, the Potency was inconclusive [inhibitor, single point]. In the case of Nc1cc(F)ccc1N1CCCCCC1, the Potency is reported as active: 1.04 µM. With COc1ccc(CCn2c(N)c(C(=O)NCc3ccco3)c3nc4ccccc4nc32)cc1 the Potency was inconclusive [inhibitor, single point]. In the case of Oc1cccc(Nc2c3ccccc3nc3ccccc23)c1, the Potency is reported as inconclusive [inhibitor, full curve, poor fit]. In the case of CN(Cc1ccccc1)S(=O)(=O)c1ccc(S(=O)(=O)N(Cc2ccc(F)cc2)C2CCCC2)cc1, the Potency is reported as inconclusive [inhibitor, single point]. In the case of Cc1cccc(N2CCN(S(=O)(=O)c3ccc4c(c3)NC(=O)C(C)S4)CC2)c1C (stereo not drawn), the Potency is reported as inconclusive [inhibitor, single point]. With Cc1ccccc1-n1c(SCC(=O)Nc2c(C)cccc2C)nc(O)cc1=O the Potency was inconclusive [inhibitor, full curve, poor fit]. With CN1C(=O)C(CC(=O)N2CCN(C(c3ccccc3)c3ccccc3)CC2)N(C)C1=O (stereo not drawn) the Potency was active: 11.7 µM. In the case of CCOC(=O)c1c(NC(=O)COC(=O)c2ccc(Cl)nc2)sc(C(=O)N(C)C)c1C, the Potency is reported as inconclusive [inhibitor, single point]. With CC(=O)c1c(C(C)=O)c(C)n(C2CCCCC2)c1C the Potency was “inactive”. With O=C(Nc1cccc(C(=O)Nc2ccc(F)cc2F)c1)c1ccccc1 the Potency was “inactive”. With CCn1nc(C)c(/C=C2\CCCC3=C2OC(N)=C(C#N)C3c2c(C)nn(CC)c2C)c1C (stereo not drawn) the Potency was active: 10.4 µM. With N#CC1=C(N)Oc2cc3c(cc2C1c1ccc(Cl)cc1)OCO3 (stereo not drawn) the Potency was inconclusive [inhibitor, single point].
